The campaign covered roughly 140,000 compounds. About 240 (0.17%) were called active. Inconclusive means that the source gave no clear call. Such entries were picked first, then a sample of the others. Calls come from the whole dose curve; as a rule, active = well fitted inhibition curve with a large enough effect; inconclusive = small, poorly fitted or top-dose-only effect; inactive = no such curve, though single readings can be large or run the other way. Where the call is inconclusive, the potency comes from a doubtful curve fit.
assay: Primary qHTS assay for inhibitors of alpha-synuclein gene (SNCA) expression; conditions: HEK-293 SNCA-luciferase knock-in, luminescence, 24 h; activity change, negative = inhibition: at 57.2 µM (top of the series) unless noted; note: nearly all actives have a fitted effect of over 45% in size;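 for activity change, negative = inhibition: plate controls were DMSO cells for no effect and cell-free wells for full effect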
Potency is the fitted concentration of half-maximal effect; tags give direction and shape of the fitted curve.

| SMILES | Potency | activity change, negative = inhibition |
| --- | --- | --- |
| COc1ccc2nc(C[C@@H]3C[C@@H](C(C)C)[C@H](CNCc4ccccc4OC)C=C3C)[nH]c2c1 | inconclusive: 39.8 µM [inhibitor, single point] |  |
| Cc1cc(Br)cc2c1N(Cc1ccccc1OC(C)C)C(=O)C2=O | inconclusive: 20 µM [inhibitor, single point] |  |
| Cc1ccc(-c2noc([C@@H]3C[C@@H](O)CN3Cc3nc4ccccc4n3C)n2)cc1F | inactive |  |
| CCCS(=O)(=O)N1CCC2(CC1)CN(C)CC2COC (stereo unspecified) | inconclusive: 39.8 µM [inhibitor, single point] |  |
| CCc1cccc(C)c1NC(=O)c1cnn(-c2ccc(OC)cc2)c1C1CCN(C(=O)OC(C)(C)C)CC1 | inconclusive: 35.5 µM [inhibitor, partial curve, poor fit] |  |
| CCN(CC)C(=O)[C@@H]1CCC[C@@H](NC(=O)c2cnccn2)CN(C)C(=O)C1 | inconclusive: 44.7 µM [inhibitor, partial curve, poor fit] |  |
| CCNC(=O)N1Cc2[nH]cnc2C[C@H]1c1nc(-c2ccc(OC(F)(F)F)cc2)no1 | inconclusive: 15.8 µM [inhibitor, partial curve, poor fit] |  |
| O=C(CN1C(=O)NC(c2ccc(Cl)cc2)C2=C1COC2=O)Nc1ccccc1 (stereo unspecified) | inconclusive: 39.8 µM [inhibitor, single point] |  |
| Cn1nc(C2CCCN2)c2c(C(=O)N3CCC(F)CC3)cc(C3CC3)nc21 (stereo unspecified) | inconclusive: 39.8 µM [inhibitor, partial curve, poor fit] |  |
| CC(C)n1cc2cc(C(=O)NCc3cccnc3)sc2c1 | inactive |  |
| COc1ccc(CC(=O)N2CCCN(c3cc(-c4ccccc4)[nH]n3)CC2)cc1OC | inactive |  |
| Cc1ccc(C(=O)N2CCCN(Cc3ccncc3)C(c3ccccc3)CC(=O)NCC2)s1 (stereo unspecified) | inactive |  |
| Cc1ccc(C2c3[nH]c4ccccc4c3CCN2C(=O)CSCc2ccc(F)cc2)cc1 (stereo unspecified) | inconclusive: 39.8 µM [inhibitor, single point] |  |
| CNC(=O)CCn1ncc2cc(OC3CCc4cccc(-c5ccncc5)c43)ccc21 (stereo unspecified) | inconclusive: 8.91 µM [inhibitor, full curve] |  |
| Cc1cc(=O)oc2cc(OCC(=O)NC3CCCc4c3[nH]c3ccccc43)ccc12 (stereo unspecified) | inconclusive: 1 µM [inhibitor, single point] |  |
| Fc1ccc(CN2CC[C@H](c3nc4ccc(C(F)(F)F)cc4[nH]3)C2)cc1F | active: 7.94 µM |  |
| CC1CCN(S(=O)(=O)c2ccc3nc(NCc4ccc(F)cc4)ccc3c2)CC1 | inconclusive: 20 µM [inhibitor, single point] |  |
| Nc1ccc(CCNc2ncnc3c2ncn3C2OC(CO)C(O)C2O)cc1 (stereo unspecified) | inconclusive: 2.82 µM [inhibitor, full curve] |  |
| O=C(NCc1cccnc1)c1ccc(N2CC3CC(C2)[C@H]2CCCC(=O)N2C3)nc1 (stereo partly specified) | inactive |  |
| CCNC(=O)O[C@@H]1CC[C@]2(C)C(CC[C@@H](O)[C@H]2CC(=O)NCc2cc(F)cc(F)c2)[C@]1(C)CO (stereo partly specified) | inactive |  |
| Cc1ccc(Cc2ccccc2C(=O)N2CCOC(C(F)(F)F)C2)cc1 (stereo unspecified) | inactive |  |
| COc1ccc(-c2ccc3c(N4CCOCC4)nc(N4C[C@@H](C)O[C@@H](C)C4)nc3n2)cc1CO | inconclusive: 24.1 µM [inhibitor, partial curve] |  |

| SMILES | Potency | activity change, negative = inhibition |
| --- | --- | --- |
| CCN1C(=O)c2ccccc2S(=O)c2ccc(C(=O)N3CCN(c4ccccc4)CC3)cc21 (stereo unspecified) | inactive |  |
| CCc1ocnc1C(=O)N[C@@H]1CCOC[C@H]1OCC1CCC1 | inconclusive: 39.8 µM [inhibitor, single point] |  |
| COc1ccc(Nc2sc(C(=O)c3ccccc3)c(N)c2C(=O)Nc2cc(C)ccc2C)c(OC)c1 | inconclusive: 39.8 µM [inhibitor, single point] |  |
| Cc1ccc(-c2cc(C(=O)NCCN3CCN(C)CC3)n(C)c2)cc1 | inactive |  |
| COCCN1CC(CO)C2(CCN(C(=O)c3cc(Cl)ccc3OC)CC2)C1 (stereo unspecified) | inactive |  |
| Cc1cccc(NC(=O)CN2C(=O)c3ccccc3Sc3ncccc32)c1C | inactive |  |
| CCn1c(NCc2ccc(OC)c(OC)c2)nc2ccccc21 | inconclusive: 35.5 µM [inhibitor, single point] |  |
| COc1ccc(-c2nnc3ccc(N4CCN(C(C)=O)CC4)nn23)nc1 | inconclusive: 7.94 µM [inhibitor, full curve, poor fit] |  |
| COc1cc2c(cc1OC)C(CNS(=O)(=O)c1ccc(C)cc1)N(C(=O)NC(C)(C)C)CC2 (stereo unspecified) | inactive |  |
| CCCCCn1c(CCCNC(=O)c2cccc(C)c2)nc2ccccc21 | inconclusive: 31.6 µM [inhibitor, single point] |  |
| COc1ccc(C(=O)N2CCCC2C(=O)N2CCC(N3Cc4ccccc4C3=O)CC2)cc1 (stereo unspecified) | inconclusive: 7.08 µM [inhibitor, full curve, poor fit] |  |
| COc1ccc(C(=O)N2CC(Oc3ccccc3-c3nc(-c4cnccn4)no3)C2)cn1 | inconclusive: 22.4 µM [inhibitor, single point] |  |
| Cc1oc(-c2ccc(C(=O)Nc3cccc(C(F)(F)F)c3)cc2)nc1CSc1ccccc1 | inconclusive: 39.8 µM [inhibitor, single point] |  |
| COc1ccc(Nc2nc3ccc(Cl)cc3n3nnnc23)cc1OC | inconclusive: 31.6 µM [inhibitor, single point] |  |
| COc1c[nH]c(CN2CCCC(CCc3ccccc3C)C2)cc1=O (stereo unspecified) | inactive |  |
| Cc1nc2c(C)cccc2cc1C(=O)N1CCC2(CCNCC2)CC1 | inactive |  |
| O=C(CCCCn1c(=O)c2ccccc2n(CC(=O)Nc2ccccc2)c1=O)NCc1ccccc1Cl | inconclusive: 7.08 µM [inhibitor, single point] |  |
| COCC(=O)N1CCCC(C(=O)N2CCCC(c3nc4ncccc4[nH]3)C2)C1 (stereo unspecified) | inactive |  |
| Cc1ccc(NC(=O)c2cnc(N3CCCCC3)c3ccccc23)cc1Cl | inconclusive: 7.08 µM [inhibitor, single point] |  |
| CCCC(=O)C1=C(c2ccc(C)cc2)N(C(=O)CCC)n2cnnc2S1 | inconclusive: 39.8 µM [inhibitor, single point] |  |
| O=C(Oc1ccccc1Cl)c1cc(-c2ccc3c(c2)OCCO3)on1 | inconclusive: 10 µM [inhibitor, single point] |  |
| CC1=C(C(=O)Nc2ccccc2C)C(c2ccco2)n2ncnc2N1 (stereo unspecified) | inconclusive: 25.1 µM [inhibitor, single point] |  |

| SMILES | Potency | activity change, negative = inhibition |
| --- | --- | --- |
| Cc1sc(-n2cccc2)c(C(C)NC(=O)Nc2ccccc2Cl)c1C (stereo unspecified) | inconclusive: 39.8 µM [inhibitor, single point] |  |
| CN(C)c1cccc(Oc2nnnn2[C@H]2CO[C@H]3[C@@H]2OC[C@@H]3NC(=O)Nc2ccc(Oc3ccccc3)cc2)c1 | inconclusive: 15.8 µM [inhibitor, partial curve, poor fit] |  |
| O=C(Cc1cccc(F)c1)N1CCC(Oc2ccccc2-c2nc(C3CC3)no2)C1 (stereo unspecified) | inconclusive: 17.8 µM [inhibitor, partial curve, poor fit] |  |
| CCc1cccc2c(C(CC(=O)NCCc3ccc(OC)c(OC)c3)c3cccc(F)c3)c[nH]c12 (stereo unspecified) | inconclusive: 39.8 µM [inhibitor, single point] |  |
| O=C(NCc1cccs1)C1(c2ccc(Cl)cc2)CCOCC1 | inactive |  |
| Cn1cccc1CN1CCC2(CC1)CC(=O)c1ccc(Cl)cc1O2 | inactive |  |
| O=C(CN1C(=O)C(c2ccccc2)=NC12CCCCC2)NCc1ccccc1 | inactive |  |
| COC(=O)c1ccccc1NC(=O)c1cc2c(s1)-c1ccccc1OC2 | inconclusive: 39.8 µM [inhibitor, single point] |  |
| O=C1OCC2(CCN(Cc3cccc(OC(F)(F)F)c3)C2)N1c1ccncc1 (stereo unspecified) |  | inconclusive: -31.2% [inhibitor] [at 87.6 µM] |
| O=C(CN(c1cc(C(F)(F)F)ccc1Cl)S(=O)(=O)c1ccccc1)NCCc1ccccc1 | inconclusive: 10 µM [inhibitor, partial curve, poor fit] |  |
| O=C(Cc1ccc(F)cc1)N1CCOCC2(CN(Cc3ccccc3)C2)C1 | inconclusive: 28.2 µM [inhibitor, single point] |  |
| CCc1ccc(CNC(=O)CSc2cc(=O)n(CC)c3ccccc23)cc1 | inconclusive: 39.8 µM [inhibitor, single point] |  |
| COc1ccc(-c2noc(COC(=O)C3=CN(C)S(=O)(=O)N=C3C)n2)cc1 | inactive |  |
| CCNC(=O)c1c(C)oc2ncn(C)c(=O)c12 | inconclusive: 3.16 µM [inhibitor, single point] |  |
| CC(C)[S+](=O)([O-])NCCNC(=O)c1cccc(-c2ccsc2)c1 | inactive |  |
| CCN(CC)C(=O)c1cnn(-c2ccc(F)cc2)c1-n1cccc1 | inconclusive: 28.2 µM [inhibitor, single point] |  |
| C[S+](=O)([O-])NCc1nnc2n1C(C(=O)NCc1cccc(C(F)(F)F)c1)CC2 (stereo unspecified) | inactive |  |
| Cc1ccc(-c2cccc(CN3CCCC(NC(=O)Cc4ccccn4)C3)c2)cc1Cl (stereo unspecified) | inconclusive: 39.8 µM [inhibitor, single point] |  |
| O=C(OCc1ccccc1)N1CCOCC12CCN(Cc1ccccc1)CC2 | inconclusive: 10 µM [inhibitor, full curve, poor fit] |  |
| CCOc1ccccc1NC(=O)Cn1c(=O)n(-c2ccccc2)c(=O)c2c1c1cc(C)ccc1n2C | inconclusive: 6.31 µM [inhibitor, full curve, poor fit] |  |
| COCCNC(=O)CCCN1C(=O)COc2ccc(C(=O)COc3ccc(F)c(Cl)c3)cc21 | inactive |  |
| CCC(CC)NC(=O)c1ccc2nccn2c1 | inactive |  |

From PubChem BioAssay AID1671194 (National Center for Advancing Translational Sciences (NCATS), 2021)
